Experimental data: PubChem BioAssay AID602310 (National Center for Advancing Translational Sciences (NCATS), 2012)
In all, about 410,000 compounds went through this assay and about 310 (0.076%) were called active. Inconclusive means that the source gave no clear call. Such entries were picked first, then a sample of the others. Calls come from the whole dose curve; as a rule, active = well fitted curve in the direction sought with a large enough effect; inconclusive = small, poorly fitted or top-dose-only effect; inactive = flat fitted curve, though single readings scatter. A potency beside an inconclusive call is a rough fit, not a confirmed value.

Each compound was assayed against DNA dC->dU-editing enzyme APOBEC-3G (Homo sapiens) (UniProt Q9HC16) (assay: qHTS for Inhibitors of Vif-A3G Interactions: qHTS). Conditions: HeLa A3G-eYFP + Vif (tagged APOBEC3G with the HIV-1 protein that degrades it), YFP fluorescence, overnight; series mostly up to 46.1 µM; activity, negative = active: at the top concentration.
Outline: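 Read-out is eYFP fluorescence (Ex 488/Em 500-530) from Vif-expressing HeLa A3G-eYFP cells; more signal means A3G escaped Vif-mediated degradation. Cells plated overnight, compound pinned in, incubated overnight at 37 deg C.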
% is set by controls: 0 for no effect and ±100 for the full control effect; potency is the fitted concentration of half-maximal effect; tags give direction and shape of the fitted curve.
Note: nearly all actives have a fitted effect of over 60% in size.
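Throughout, for activity, negative = active: hits raise eYFP signal because A3G escapes Vif-driven loss.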

Sequence of UniProt Q9HC16 (Q9HC16 whole entry, looked up): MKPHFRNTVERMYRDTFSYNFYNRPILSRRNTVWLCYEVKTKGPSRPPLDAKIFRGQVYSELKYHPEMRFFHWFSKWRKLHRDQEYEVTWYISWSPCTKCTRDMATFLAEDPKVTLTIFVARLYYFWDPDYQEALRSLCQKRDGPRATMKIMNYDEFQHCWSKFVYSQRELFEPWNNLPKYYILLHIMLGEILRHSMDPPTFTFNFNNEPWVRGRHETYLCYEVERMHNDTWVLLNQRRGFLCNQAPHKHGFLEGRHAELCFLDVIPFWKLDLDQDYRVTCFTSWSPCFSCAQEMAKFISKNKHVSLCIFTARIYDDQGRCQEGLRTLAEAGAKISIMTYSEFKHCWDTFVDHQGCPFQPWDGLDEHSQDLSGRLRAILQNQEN

Structure (SMILES) | Potency | activity, negative = active
COc1cc(/C=C/c2ccc3cccc(O)c3n2)ccc1O | inconclusive: 35.5 µM [inhibitor, single point] | 
CSc1nc(-c2ccc(N(C)C)cc2)c(C#N)c(=O)n1C | inconclusive: 11.2 µM [inhibitor, partial curve] | 
COC(=O)c1[nH]c2ccc(C)cc2c1NC(=O)Nc1ccccc1OC | inconclusive: 17.8 µM [inhibitor, single point] | 
CCc1ccc(NC(=O)CCn2cnc3ccccc3c2=O)cc1 |  | inactive: 2.08%
Cc1cnc(NC(=O)CCc2ccccc2)s1 | inconclusive: 10 µM [inhibitor, partial curve] | 
CCn1nnc(NC(=O)c2ccc([N+](=O)[O-])o2)n1 | inconclusive: 15.8 µM [inhibitor, single point] | 
COc1ccc(/C=N/Nc2ncnc3sc4c(c23)CCCC4)cc1OC | inconclusive: 14.1 µM [inhibitor, single point] | 
CCc1ccc(S(=O)(=O)c2nnn3c2nc(NCCNC(C)=O)c2cc(Cl)ccc23)cc1 |  | inactive: 1.21%
Cc1ccc(-n2c(C)cc(/C=C3\NC(=O)NC3=O)c2C)c(C)c1 |  | inactive: -0.25%
COc1cc(-c2cnc3c(NC=O)cc(-c4cccc(C(F)(F)F)c4)cn23)cc(OC)c1OC | inconclusive: 3.16 µM [inhibitor, partial curve, poor fit] | 
Nc1sc(-c2ccccc2)cc1-c1n[nH]c(=S)n1C1CCCCC1 | inconclusive: 1.12 µM [inhibitor, partial curve, poor fit] | 
O=C1OC(Nc2nc(-c3ccc(F)cc3)cs2)c2ccccc21 (stereo not drawn) | inconclusive: 20 µM [inhibitor, partial curve, poor fit] | 
O=C1/C(=C/c2c[nH]c3ccccc23)CCC/C1=C\c1c[nH]c2ccccc12 | inconclusive: 17.8 µM [inhibitor, partial curve, poor fit] | 
COCCNC(=S)N/N=C/c1ccccc1C(=O)O |  | inactive: 0.571%
CCc1ccc(NC(=O)Cn2c(-c3cncs3)nc3ccccc32)cc1 |  | inactive: -3.19%
COc1ccccc1OCC(=O)N/N=C(\C)c1ccc2ccccc2c1 | inconclusive: 11.2 µM [inhibitor, partial curve] | 
COc1ccc2[nH]c(C)c(C(=O)CNc3nccs3)c2c1 |  | inactive: -1.39%
Cc1ccc(CNC(=O)CSc2nc3ccsc3c(=O)n2Cc2ccc(C(=O)O)cc2)cc1 |  | inactive: -3%
O=C(N/N=C/c1sc(=O)n(-c2ccccc2)c1Cl)c1ccccc1 | inconclusive: 12.6 µM [inhibitor, single point] | 
Cc1cccc2sc(NC(=O)C3c4ccccc4Oc4ccccc43)nc12 |  | inactive: 3.04%
CC(C)NC(=O)COC(=O)c1cncc(Br)c1 |  | inactive: 0.906%
Cc1ccccc1Oc1cc(NC(=O)CCCn2nc(C)c([N+](=O)[O-])c2C)cc([N+](=O)[O-])c1 | inconclusive: 17.8 µM [inhibitor, partial curve, poor fit] | 

Structure (SMILES) | Potency | activity, negative = active
COc1ccc(OC)c(C(=O)c2coc3ccc(OC(C)=O)cc23)c1 | inconclusive: 22.4 µM [inhibitor, single point] | 
CCCCC(=NCCc1c(C)[nH]c2ccccc12)C1=C(O)CC(c2ccccc2)CC1=O (stereo not drawn) | inconclusive: 6.31 µM [inhibitor, single point] | 
Cc1ccc(C2=NN(C(=O)CCl)C(c3ccco3)C2)o1 (stereo not drawn) | inconclusive: 22.4 µM [inhibitor, single point] | 
CCCCc1nnc(NC(=O)CCS(=O)(=O)c2ccc(C)cc2)s1 | inconclusive: 12.6 µM [inhibitor, partial curve, poor fit] | 
COc1ccc(/C=N/Nc2cc(C)nc3ccc(Br)cc23)cc1 | inconclusive: 35.5 µM [inhibitor, single point] | 
Cc1cc(C2=NNC(=Nc3ccccc3)SC2)c(C)n1C |  | inactive: 2.28%
COc1ccc(NC(=O)C(NC(=O)/C=C\c2ccc3c(c2)OCO3)c2ccccc2)cc1 (stereo not drawn) | inconclusive: 11.2 µM [inhibitor, partial curve] | 
Cc1cc(C(=O)N/N=C/c2ccc(C)o2)c2ccccc2n1 | inconclusive: 3.55 µM [inhibitor, partial curve, poor fit] | 
Cn1nc(-c2ccc(N3CCOCC3)c(NS(=O)(=O)c3ccc(Cl)cc3)c2)c2ccccc2c1=O | inconclusive: 22.4 µM [inhibitor, single point] | 
Cc1ccc(-n2cnc3cc(C(=O)NCc4ccccc4Cl)ccc32)c(C)c1 |  | inactive: 3.56%
O=C(c1[nH]c(C(F)(F)F)nc1-c1ccccc1)N1CCN(c2cccc(C(F)(F)F)n2)CC1 | inconclusive: 1.41 µM [inhibitor, full curve, poor fit] | 
O=C(NCCc1ccc(O)c(O)c1)C1COc2ccccc2O1 (stereo not drawn) | inconclusive: 22.4 µM [inhibitor, partial curve, poor fit] | 
Oc1ccc2ccccc2c1/C=N/c1nc2c(s1)CCCC2 | inconclusive: 35.5 µM [inhibitor, single point] | 
Cc1ccsc1C1Nc2ccc3ncccc3c2C2=C1C(=O)CC(C)(C)C2 (stereo not drawn) | inconclusive: 3.55 µM [inhibitor, full curve, poor fit] | 
COc1ccc(CNC(=O)c2nc(S(=O)(=O)Cc3ccccc3)ncc2Cl)cc1 | inconclusive: 12.6 µM [inhibitor, single point] | 
COc1cc2c(cc1OC)CN(C(=O)c1ccc3nc[nH]c3c1)CC2 | inconclusive: 10 µM [inhibitor, partial curve] | 
CCOC(=O)N1CCN(Cc2nc3cc(NC(=O)c4ccccc4OC)ccc3n2C(C)C)CC1 | inconclusive: 3.16 µM [inhibitor, single point] | 
Oc1c(C=Nc2ccccc2)sc2ccccc12 | inconclusive: 20 µM [inhibitor, single point] | 
Fc1ccc2nc3[nH]c4ccccc4c3nc2c1 | active: 1.41 µM | 
N#CC1=C2SCC(O)(c3ccccc3)N2C(=O)CC1c1cccs1 (stereo not drawn) | inconclusive: 0.891 µM [inhibitor, full curve, poor fit] | 
CCc1ccc2nc(SCC(=O)N3CC(=O)Nc4ccccc43)c(C#N)cc2c1 | inconclusive: 10 µM [inhibitor, partial curve, poor fit] | 
